Among all 360,000 compounds or so, about 16,000 (4.4%) were called active. The inconclusive results got no clear call from the source; some entries with a clear call stand among them for comparison. The call rests on the fitted dose curve; in most records, active means well fitted inhibition curve with a large enough effect; inconclusive means small, poorly fitted or top-dose-only effect; inactive means no such curve, though single readings can be large or run the other way. Potencies beside an inconclusive call are fits to weak or partial responses and may not hold up.
These compounds were tested against Bromodomain adjacent to zinc finger domain protein 2B (Homo sapiens) (UniProt Q9UIF8) (assay: qHTS Assay for Inhibitors of BAZ2B). Conditions: AlphaScreen BAZ2B-H3K14Ac peptide displacement; series mostly up to 114 µM.
UniProt Q9UIF8, sequence (Q9UIF8 whole entry, looked up, the tested form may be a part): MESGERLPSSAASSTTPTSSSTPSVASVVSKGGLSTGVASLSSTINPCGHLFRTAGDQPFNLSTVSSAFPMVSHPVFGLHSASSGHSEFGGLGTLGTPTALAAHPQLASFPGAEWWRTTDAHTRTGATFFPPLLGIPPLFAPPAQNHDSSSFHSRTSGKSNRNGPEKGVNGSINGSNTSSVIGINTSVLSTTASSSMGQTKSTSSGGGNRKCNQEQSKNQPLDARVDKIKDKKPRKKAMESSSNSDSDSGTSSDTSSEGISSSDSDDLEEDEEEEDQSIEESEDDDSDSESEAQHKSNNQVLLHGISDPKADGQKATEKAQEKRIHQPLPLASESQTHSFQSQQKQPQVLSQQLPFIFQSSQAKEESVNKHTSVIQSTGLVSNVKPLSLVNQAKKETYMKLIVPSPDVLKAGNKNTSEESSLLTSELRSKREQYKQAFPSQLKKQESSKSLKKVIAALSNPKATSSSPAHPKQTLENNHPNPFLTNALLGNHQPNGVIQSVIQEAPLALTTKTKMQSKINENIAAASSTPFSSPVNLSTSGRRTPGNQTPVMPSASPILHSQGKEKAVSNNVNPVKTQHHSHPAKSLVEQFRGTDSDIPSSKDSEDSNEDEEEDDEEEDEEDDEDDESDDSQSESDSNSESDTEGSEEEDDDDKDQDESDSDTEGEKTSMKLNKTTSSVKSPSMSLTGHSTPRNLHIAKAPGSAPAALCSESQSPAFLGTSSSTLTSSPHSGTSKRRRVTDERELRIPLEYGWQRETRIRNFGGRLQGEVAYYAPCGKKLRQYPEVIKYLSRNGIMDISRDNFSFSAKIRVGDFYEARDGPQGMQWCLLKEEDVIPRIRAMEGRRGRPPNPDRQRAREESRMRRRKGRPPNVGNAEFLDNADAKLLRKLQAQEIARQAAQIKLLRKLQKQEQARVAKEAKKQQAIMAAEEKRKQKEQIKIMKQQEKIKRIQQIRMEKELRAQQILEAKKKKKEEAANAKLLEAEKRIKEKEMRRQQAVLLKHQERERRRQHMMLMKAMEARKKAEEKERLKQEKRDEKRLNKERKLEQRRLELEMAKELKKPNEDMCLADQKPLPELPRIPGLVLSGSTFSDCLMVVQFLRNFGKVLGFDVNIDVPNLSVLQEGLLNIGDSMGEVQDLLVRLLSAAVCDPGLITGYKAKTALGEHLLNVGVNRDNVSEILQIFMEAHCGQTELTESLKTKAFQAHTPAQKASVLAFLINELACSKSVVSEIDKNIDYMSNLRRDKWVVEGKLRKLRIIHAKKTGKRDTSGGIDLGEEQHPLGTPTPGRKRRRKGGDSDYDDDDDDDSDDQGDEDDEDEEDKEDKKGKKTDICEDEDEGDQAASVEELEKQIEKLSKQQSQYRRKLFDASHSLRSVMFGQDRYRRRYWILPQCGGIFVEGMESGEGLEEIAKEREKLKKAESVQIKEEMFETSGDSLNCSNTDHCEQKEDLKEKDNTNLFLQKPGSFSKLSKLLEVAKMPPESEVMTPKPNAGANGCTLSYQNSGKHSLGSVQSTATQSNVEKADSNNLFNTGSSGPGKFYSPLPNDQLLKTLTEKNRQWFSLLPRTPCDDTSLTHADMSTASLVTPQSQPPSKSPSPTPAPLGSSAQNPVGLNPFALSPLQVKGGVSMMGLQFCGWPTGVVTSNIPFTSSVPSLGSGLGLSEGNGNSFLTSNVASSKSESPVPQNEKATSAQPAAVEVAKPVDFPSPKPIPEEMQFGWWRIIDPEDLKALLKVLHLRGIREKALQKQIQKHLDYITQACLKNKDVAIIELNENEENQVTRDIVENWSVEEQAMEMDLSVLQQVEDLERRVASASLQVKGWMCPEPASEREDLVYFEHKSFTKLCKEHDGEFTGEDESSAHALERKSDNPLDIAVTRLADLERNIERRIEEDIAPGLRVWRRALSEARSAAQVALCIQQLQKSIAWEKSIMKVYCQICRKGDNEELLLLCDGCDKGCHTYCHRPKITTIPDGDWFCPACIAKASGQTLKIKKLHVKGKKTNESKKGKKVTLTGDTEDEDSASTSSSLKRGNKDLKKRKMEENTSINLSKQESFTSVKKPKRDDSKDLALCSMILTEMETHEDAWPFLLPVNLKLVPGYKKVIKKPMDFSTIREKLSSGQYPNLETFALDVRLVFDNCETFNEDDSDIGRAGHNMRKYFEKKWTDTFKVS
Outline: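 Multi-concentration screen (max 110 uM) measuring displacement of acetylated histone H3 peptide from BAZ2B by AlphaScreen, using 50 nM protein, 50 nM peptide and 10 ug/mL streptavidin donor plus Ni-chelate acceptor beads.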
Further: nearly all actives have a fitted effect of over 60% in size.
Potency means the concentration at half of the fitted maximal effect; tags describe the fitted curve by direction and shape.

SMILES	Potency
CCCC(c1nnnn1Cc1cccs1)N1CCN(c2ccc(OC)cc2)CC1 (stereo not drawn)	active: 44.7 µM
COc1ccc(C2C(C(C)=O)=C(O)C(=O)N2c2nccs2)c(OC)c1 (stereo not drawn)	inconclusive: 79.4 µM [inhibitor, partial curve]
CCCNC(=O)c1cc(OC)c(OC)cc1[N+](=O)[O-]	inactive
Clc1ccccc1-c1nnc2sc(-c3ccncc3)nn12	inactive
COc1ccc2oc(=O)c(C(=O)Nc3ccccc3C)cc2c1	active: 50.1 µM
COc1ccccc1NC(=O)CCNS(=O)(=O)c1ccc2c(c1)CCCC(=O)N2	inactive
COc1ccc(/C=N/N2CCN(C3c4ccccc4-c4ccccc43)CC2)cc1O	active: 35.5 µM
O=C(CNc1ccc2ccccc2c1)N/N=C/c1cc2ccccc2nc1Cl	inconclusive: 7.94 µM [inhibitor, full curve]
Cc1cccc(NC(=O)Cn2c([N+](=O)[O-])cnc2C)c1C	inactive
CCCCc1nc2sc3c(SCCN(C)C)ncnc3c2c2c1CCC2	inactive
CCOC(=O)c1c2c3c(cccc3[nH]c1=O)C(=O)c1ccccc1-2	inactive
CSc1nc(N(C)CCO)c2sc3nc(-c4ccco4)c4c(c3c2n1)CCC4	active: 50.1 µM
N#CC1=C(S)N(c2ccccc2)C(c2ccc(-c3ccc(Cl)c(Cl)c3)o2)NC1=O (stereo not drawn)	inconclusive: 63.1 µM [inhibitor, partial curve, poor fit]
COc1ccc(Cl)cc1C(=O)NC(=S)Nc1cc(-c2nc3ccccc3[nH]2)ccc1C	inconclusive: 50.1 µM [inhibitor, partial curve, poor fit]
CC(=O)/C=C1\SC(CC(=O)O)C(=O)N1c1ccccc1 (stereo not drawn)	inconclusive: 12.6 µM [inhibitor, single point]
C/C=C/C=C/C(=O)Nc1cccc(C2=NOC3(C2)C[C@H](C(N)=O)N(C(=O)CC(c2ccccc2)c2ccccc2)C3)c1 (stereo partly drawn)	inconclusive: 44.7 µM [inhibitor, partial curve]
COC(=O)C1=C(C)N(Cc2ccccc2)C(=NCC(C)C)N[C@H]1c1cccc(F)c1	inconclusive: 89.1 µM [inhibitor, single point]
COc1ccccc1CNC(=O)CN1C(=O)NC2(CCCc3sccc32)C1=O (stereo not drawn)	inactive
CSc1ncc(C(=O)Nc2ccccc2C(=O)c2ccccc2)c(C)n1	inactive
NC(=S)N/N=C\c1c(OCc2ccccc2Cl)ccc2ccccc12	inconclusive: 31.6 µM [inhibitor, full curve, poor fit]
CC1CN(c2nc(-c3ccccc3)nnc2-c2ccccc2)CC(C)O1 (stereo not drawn)	inconclusive: 100 µM [inhibitor, single point]
Cc1nc(-c2ccccn2)sc1C(=O)O	inconclusive: 79.4 µM [inhibitor, single point]
COc1ccc(OC)c(NC(=O)c2cc3ccccc3o2)c1	inactive
O=S(=O)(c1cccc2ccccc12)n1nnc2ccccc21	inconclusive: 89.1 µM [inhibitor, single point]

SMILES	Potency
O=C(CN1CCC(C(=O)c2ccc(Cl)cc2)CC1)NC1CCCC1	inactive
CCOc1ccc(CNc2ccc(N3CCCC3)cc2)cc1	active: 17.8 µM
S=C(NCc1ccco1)N/N=C/c1ccc(Cl)cc1	inconclusive: 44.7 µM [inhibitor, partial curve]
COc1ccc(CCNC(=O)c2cccc3c2C(=O)N(C2CCCCC2)C3)cc1OC	inconclusive: 89.1 µM [inhibitor, single point]
OCC1CCCN(C(=S)Nc2ccc(OC(F)F)cc2)C1 (stereo not drawn)	inactive
Cc1cccc(/N=C/c2c(C)[nH]n(-c3ccccc3)c2=O)n1	inconclusive: 70.8 µM [inhibitor, single point]
CCOc1ccccc1NC(=O)NNC(=O)c1ccc2ccccc2c1	inconclusive: 79.4 µM [inhibitor, single point]
C=CCCC(=O)Nc1nc(C)c(-c2csc(Nc3ccc(Cl)cc3)n2)s1	active: 44.7 µM
Cc1cccc(Nc2nnc(SCC(=O)Nc3ccccc3[N+](=O)[O-])s2)c1	inactive
Cc1cc(C)cc(-n2c(C)cc(C=C(C#N)C#N)c2C)c1	inactive
O=C(Nc1ccccc1)OC1CC2CC1C1CCCC21 (stereo not drawn)	inactive
CCc1nnc(NS(=O)(=O)c2ccc(NC(=S)NC(=O)c3ccc(OC)cc3)cc2)s1	inactive
COc1ccc(C2C(C(C)=O)=C(O)C(=O)N2CCCn2ccnc2)cc1 (stereo not drawn)	inconclusive: 89.1 µM [inhibitor, single point]
CCCC1(C(=O)OCC)NC(c2ccc(N(C)C)cc2)C2C(=O)N(c3ccc(OCC)cc3)C(=O)C21 (stereo not drawn)	inconclusive: 44.7 µM [inhibitor, partial curve]
CCCCCCCCN1C(=O)C(O)=C(C(C)=O)C1c1ccccn1 (stereo not drawn)	inactive
O=C1COc2ccc(C(=O)COC(=O)c3ccccn3)cc2N1	inconclusive: 89.1 µM [inhibitor, single point]
COc1ccc(CN2C(=O)/C(=C/c3ccc(-c4ccc(Cl)c(C(=O)O)c4)o3)SC2=S)cc1	inconclusive: 25.1 µM [inhibitor, partial curve, poor fit]
CCC(C(=O)NCc1ccco1)n1nc(-c2ccc(OC)cc2)ccc1=O (stereo not drawn)	active: 50.1 µM
O=C(C[n+]1cn(C(F)F)c2ccccc21)c1ccc(OC(F)F)cc1	inconclusive: 89.1 µM [inhibitor, single point]
COc1ccc(C[C@H]2CN3C(=NC[C@H]3Cc3ccccc3)N2CCNC(=O)CCC2CCCCC2)cc1	inconclusive: 79.4 µM [inhibitor, single point]
Cc1ccccc1OCC(=O)N(Cc1ccc(N(C)C)cc1)CC1CCCO1 (stereo not drawn)	active: 31.6 µM
CC(=O)c1c(C)[nH]c(C(=O)CN2C(=O)NC(C)(c3ccc4c(c3)OCCO4)C2=O)c1C (stereo not drawn)	inconclusive: 89.1 µM [inhibitor, single point]
CCN1C(=O)c2cccc3c(N)ccc1c23	inconclusive: 89.1 µM [inhibitor, single point]
CC(=O)N1c2ccccc2C(=O)C1N1CCN(c2cccc(C(F)(F)F)c2)CC1 (stereo not drawn)	inconclusive: 70.8 µM [inhibitor, partial curve]

From PubChem BioAssay AID504333 (National Center for Advancing Translational Sciences (NCATS), 2011)
